Laboratory results from US20230398178A1, “METHODS AND COMPOSITIONS FOR TREATING OR PREVENTING A VAGINAL INFECTION OF GARDNERELLA VAGINALIS” (Massachusetts Institute of Technology, priority 2022, published 2023).

System: End1 endocervical cells challenged with G. vaginalis 49145 or 14018
Description: FIG. 3A-E: Mucin and D-fucose can prevent G. vaginalis killing of End1 cervical cells in vitro, potentially by reducing the expression of vaginolysin. […] To assess the protective ability of MUC5B, it can be added to apical surface of the cells. The cells can then be challenged with G. vaginalis, and the percentage of endocervical cell death can be recorded. […] (FIG. 3D) A key mechanism by which G. vaginalis kills endocervical cells is by secreting the cholesterol-dependent cytolysin vaginolysin (vly). […] We measured vaginolysin expression by RT-qPCR.
Given that mucin and D-fucose are able to suppress biofilm formation by G. vaginalis 49145 and 14018, we next wondered whether this effect translated into reduced virulence against epithelial cells. To test this, we used an endocervical cell line model (End1), introduced these strains as a pathogen challenge, and then measured the viability of the endocervical cells after 24 hours (FIG. 3A). In the control, challenging End1 cells with either strain of Gardnerella results in almost 90% cell death.

| Molecule | effect on endocervical cell death / killing, in words | effect on endocervical cell death / killing, in words (End1 cells challenged with G. vaginalis 49145 or 14018, viability after 24 hours, listed as mucin) |
| --- | --- | --- |
| CC(=O)N[C@H]1[C@H]([C@H](O)[C@H](O)CO)OC(O)(C(=O)O)C[C@@H]1O (stereo partly drawn) [NeuNAc, N-acetyl D-neuraminic acid, reference compound] | did not add to or protect against cell killing | – |
| MUC5B: mucin glycoprotein, predominant in cervicovaginal fluid, purified from pooled human saliva and reconstituted into gels | – | significant reduction in cell death |

Like-named read-outs stand apart in the source and are kept apart here.
